± gives the standard deviation of the averaged measurements. This is one part of the list.
The sequences below were run on PfAP2-I AP2 domain 3 (GST-tagged) (assay: gcPBM binding intensity (ln(normalized median fluorescence intensity)); higher = stronger DNA binding).
How it was run: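 GST-tagged P. falciparum DNA-binding domains, expressed in E. coli (about 25 μg on average), were applied for 1 h to an Agilent 4 × 180k array of primer-extended double-stranded 36-bp intergenic genomic probes plus negative controls. The binding buffer was 1× PBS with 1% milk, 0.2 mg/ml BSA, 0.5% salmon testes DNA and 0.03% Triton X-100. Bound protein was detected with Alexa488 anti-GST antibody and scanned at 488 nm. Binding intensity is the highest Masliner-normalised natural-log median intensity across replicate spots of either probe orientation.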

Row | Sequence | gcPBM binding intensity (ln)
1 | ATTAAAAGTTTATACAAATAAAAAACAAAACAAAAA [CACACA_negctrl_site1030] | 7.7 ± 0.55
2 | AGCCAAACCTTAAATTTAGCAATAAGTTTACAGGTC [CACACA_negctrl_site360] | 7.4 ± 0.64
3 | TATATATGCATATACATACACACATAACACATACGT [CACACA_site3833] | 8.24 ± 0.39
4 | AATGTTTTATTTTGAAGTACATTTAAGAATTTTTTA [XGTACX_site7814] | 7.61 ± 0.47
5 | TTATGTTCTTTAAAACCACACACCCCCCAACCCCCC [CACACA_site8742] | 10.9 ± 0.44
6 | TATGAAATTATAATTACACACAGGAAAATAAAATGT [CACACA_site1517] | 8.29 ± 0.64
7 | ATATAATAATAAGGCACACAAATTAAAATATAAAAA [CACACA_site3710] | 9.87 ± 0.67
8 | CATTTCATTTCTTAATGTACTTTATTCCACCACATA [XGTACX_site5943] | 8.34 ± 0.16
9 | TTTATTATTATATTATTTTAATTTTTCTTTAGTACA [GTGCAC_negctrl_site392] | 7.46 ± 0.57
10 | AAATTAAATAAATTTACACACTAAAAATTACATATA [CACACA_site1054] | 7.67 ± 0.33
11 | ATAAATATATGAAGTTGTACAAATAATTAACATTAT [XGTACX_site5740] | 7.78 ± 0.45
12 | TACCATGTTCAAATTACACACATATAATCTAATATA [CACACA_site2008] | 7.75 ± 0.47
13 | ATTTTTTTTAATTTGTACAAATTTTGTTCACAATTT [CACACA_negctrl_site1301] | 7.89 ± 0.67
14 | TATGTTAAAAAAAAATGTACATATGTTTTTGTTAAA [XGTACX_site4754] | 7.74 ± 0.57
15 | ATACATTCAAAATATACACACATATATATATAATAT [CACACA_site950] | 7.91 ± 0.44
16 | TTTCCCCCATATAATGAACACACACCCTCCTCATAA [CACACA_site8110] | 9.22 ± 0.26
17 | GACCCATTATTTTATTGTACTTTTATTATAACGTGA [XGTACX_site156] | 8.26 ± 0.4
18 | AAATGAATAATGATATACAAACAAATCATGTGTTAA [XGTACX_negctrl_site150] | 7.33 ± 0.59
19 | ATGTGTGTATACATCAATTATATATATATTATGTAT [GTGCAC_negctrl_site720] | 7.91 ± 0.51
20 | AAAATAAAAATAACAACACACATATACTATAATATT [CACACA_site2769] | 7.61 ± 0.48
21 | ATAATATAGAACAATACATGCAAATGGCTTAAATTT [TGCATGCA_site521] | 7.69 ± 0.81
22 | GGAAGCTAATTACACACATGCATATTTTTTTTTCAA [TGCATGCA_site548] | 8.16 ± 0.83
23 | ATGGGACAGATATATACACACATATAAATATAAATA [CACACA_site6684] | 7.81 ± 0.38
24 | AAAGGGACATATATATCACACACAAAAATTAGTCCC [CACACA_site8897] | 7.78 ± 0.63

— the supplement of paper PMC11417369
